# Reference: PubChem BioAssay AID540317 (National Center for Advancing Translational Sciences (NCATS), 2011)
# “And” between values parts separate entries of the source, which are not always exact repeats. Equal values may be shown once. The whole screen tested about 390,000 compounds, of which about 2,200 (0.56%) were called active. Inconclusive means that the source gave no clear call. Such entries were picked first, then a sample of the others. The call rests on the fitted dose curve; in most records, active means well fitted inhibition curve with a large enough effect; inconclusive means small, poorly fitted or top-dose-only effect; inactive means no such curve, though single readings can be large or run the other way. Potencies beside an inconclusive call are fits to weak or partial responses and may not hold up.
# Biological target: Chromobox protein homolog 1 (Homo sapiens) (UniProt P83916)
# Sequence of UniProt P83916 (P83916 whole entry, looked up): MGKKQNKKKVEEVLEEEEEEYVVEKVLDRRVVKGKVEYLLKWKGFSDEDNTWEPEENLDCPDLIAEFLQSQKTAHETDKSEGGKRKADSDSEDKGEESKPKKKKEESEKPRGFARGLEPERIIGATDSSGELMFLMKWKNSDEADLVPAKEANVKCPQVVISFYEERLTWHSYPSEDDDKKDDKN
# Assay: HTS for Inhibitors of HP1-beta Chromodomain Interactions with Methylated Histone Tails; further: nearly all actives have a fitted effect of over 70% in size
# Conditions: AlphaScreen HP1-beta / biotin-H3K9me3 peptide binding; series mostly up to 114 µM
# How it was run: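 Compound inhibition of the preformed complex between 50 nM HP1-beta and 50 nM biotinylated H3K9me3 peptide was read by AlphaScreen. Buffer was PBS pH 7.4 with 0.01% Tween-20. Incubations ran 30 min at room temperature, with 10 ug/mL donor/acceptor beads.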
# Potency means the concentration at half of the fitted maximal effect; tags describe the fitted curve by direction and shape.
row,SMILES,Potency
1,Cn1c(=O)c2c(c3ccccc31)OC(=O)CC2c1ccccc1 (stereo not drawn),inactive
2,COc1ccc(S(=O)(=O)Nc2c(O)ccc3ccccc23)cc1OC,active: 70.8 µM
3,Fc1ccc(CNc2ccc(N3CCN(Cc4ccccc4)CC3)cc2)cc1,active: 22.4 µM
4,Cc1ccc(S(=O)(=O)N2CCN(CC(=O)N/N=C/c3ccccc3OCC(=O)O)CC2)cc1,inactive
5,CN(C)c1ccc(-c2nc3ccccn3c2Nc2ccc3c(c2)OCCO3)cc1,"inconclusive: 25.1 µM [inhibitor, partial curve]"
6,COc1ccccc1NS(=O)(=O)c1cc(NC(=S)NCCN2CCOCC2)ccc1N1CCOCC1,"inconclusive: 14.1 µM [inhibitor, full curve]"
7,O=[N+]([O-])c1ccccc1Nc1cccc(F)c1,"inconclusive: 22.4 µM [inhibitor, partial curve]"
8,S=c1[nH]nc(-c2cc(-c3ccccc3)n[nH]2)n1/N=C/c1cccc(Cl)c1,"inconclusive: 15.8 µM [inhibitor, partial curve, poor fit]"
9,N/C(=N\OC(=O)c1cccc(F)c1)c1cccc([N+](=O)[O-])c1,"inconclusive: 35.5 µM [inhibitor, single point]"
10,Cc1c(Cc2ccccc2)sc(NC(=O)C(C)(C)C)c1C(N)=O,"inconclusive: 28.2 µM [inhibitor, partial curve]"
11,Cc1ccc(NC(=O)c2ncn(CCCNCc3ccccn3)n2)cc1C,inactive
12,CC(=O)Nc1nc(C)c(-c2csc(Nc3cccc([N+](=O)[O-])c3)n2)s1,inactive
13,CCOC(=O)Cc1csc(N/N=C/c2cccc([N+](=O)[O-])c2)n1,inactive
14,COC(=O)C1=C(C)NC2=C(C(=O)c3ccccc32)C1c1ccc(-c2ccc(C(=O)O)cc2)o1 (stereo not drawn),"inconclusive: 31.6 µM [inhibitor, single point]"
15,CCOc1ccccc1N1CCN(C(=O)NCc2ccc(C)cc2)CC1,inactive
16,CC(=O)NC(Nc1nc2c(s1)CCCC2)(C(F)(F)F)C(F)(F)F,"inconclusive: 31.6 µM [inhibitor, partial curve, poor fit]"
17,O=[N+]([O-])c1ccc(NN=Cc2ccc(O)cc2O)nc1,inactive
18,CC[C@H](C)C(=O)O[C@H]1C[C@@H](C)C=C2C=C[C@H](C)[C@H](CC[C@@H]3C[C@@H](O)CC(=O)O3)[C@H]21,inactive
19,Clc1ccc(OCCn2c(-c3ccco3)nc3ccccc32)cc1,"inconclusive: 44.7 µM [inhibitor, partial curve, poor fit]"
20,CCCN1CCCc2cc(CN(CCCN3CCOCC3)C(=O)Nc3ccc(OCC)cc3)ccc21,"inconclusive: 17.8 µM [inhibitor, full curve, poor fit] and inconclusive: 35.5 µM [inhibitor, partial curve]"
21,CCOc1ccccc1CNC(=O)C1CCN(Cc2cc3ccccc3n2Cc2ccccc2)CC1,inactive
22,COc1ccccc1Cc1nnc(NC(=O)C2CCN(C(=O)c3ccco3)CC2)s1,"inconclusive: 17.8 µM [inhibitor, full curve]"
23,COC(=O)[C@]1(C)N[C@H](CN(C)S(=O)(=O)c2ccc(C)cc2)[C@@H]2C(=O)N(C)C(=O)[C@@H]21,inactive
24,C[c-]1[c-](C)[c-](C)[c-](C)[c-]1C.[Fe].c1cc2nccc(N3CCCC3)[c-]2c1 (stereo not drawn),"inconclusive: 50.1 µM [inhibitor, partial curve, poor fit]"
25,CCn1cc(C(=O)NCc2ccco2)c2cc(OC)c(OC)cc2c1=O,inactive

row,SMILES,Potency
1,CCOC(=O)NC1(Nc2cccc(Cl)c2)Oc2ccccc2O1,"inconclusive: 89.1 µM [inhibitor, single point]"
2,CCCn1c(SCC(=O)NC2CC2)nnc1-c1ccccn1,inactive
3,Cc1cccc(C(=O)Nc2cc(S(=O)(=O)N3CCOCC3)ccc2N2CCCCC2)c1,inactive
4,OCCN(Cc1ccccc1)Cc1ccc(C(F)(F)F)cc1,active: 15.8 µM
5,CCCCNC(=O)CS(=O)Cc1nc(-c2ccc(C)cc2)oc1C (stereo not drawn),inactive
6,C=C1CCN(C(C)C(=O)OCc2cccc(C)c2)S(=O)(=O)c2ccccc21 (stereo not drawn),inactive
7,CCN(CC)c1ccc(NC(=O)CN2CCN(c3nc(C)cc(C)n3)CC2)cc1,"inconclusive: 50.1 µM [inhibitor, partial curve]"
8,CN(C(=O)NCc1noc2ccccc12)c1cccc(Cl)c1,inactive
9,CN1CCOC(=O)/C1=N/Nc1cc(Cl)ccc1Cl,"inconclusive: 20 µM [inhibitor, full curve]"
10,O=C(COC(=O)c1cnc(Cl)c(Cl)c1)Nc1ccc(S(=O)(=O)N2CCCC2)cc1,inactive
11,Cc1ccc(CNC(=O)C(=O)NCC2OCCN2S(=O)(=O)c2ccc(Br)cc2)cc1 (stereo not drawn),inactive
12,CCn1c(CSc2nc3ccccc3s2)nnc1SCC(=O)c1ccc(O)c(O)c1,inactive
13,CCOc1cc(/C=N/O)ccc1OCc1ccc(F)cc1,"inconclusive: 39.8 µM [inhibitor, single point]"
14,Cc1sc(NC(=O)c2ccco2)c(CN2CCN(c3ccccn3)CC2)c1C,"inconclusive: 25.1 µM [inhibitor, single point]"
15,Cc1cc2oc(C(=O)N(Cc3ccc(N(C)C)cc3)CC3CCCO3)c(C)c2cc1C (stereo not drawn),"inconclusive: 11.2 µM [inhibitor, full curve, poor fit]"
16,COc1cc(/C=C2\C(=O)NN(c3ccccc3)C2=O)cc([N+](=O)[O-])c1O,"inconclusive: 39.8 µM [inhibitor, partial curve]"
17,COc1cc([N+](=O)[O-])ccc1NC(=S)NNC(=O)c1ccc2c(c1)OCO2,"inconclusive: 17.8 µM [inhibitor, full curve]"
18,O=C(Nc1nc(-c2ccccn2)cs1)c1ccc(F)c(S(=O)(=O)N2CCOCC2)c1,"inconclusive: 22.4 µM [inhibitor, partial curve]"
19,CC(=O)Nc1ccc(CN2CCCCCCC2)cc1,"inconclusive: 79.4 µM [inhibitor, partial curve, poor fit]"
20,C/C=C(\C)CN1CCN(c2cc(C)ccc2C)CC1,"inconclusive: 50.1 µM [inhibitor, single point]"
21,COc1cc(NC(=O)c2csc3c2CCCC3)ncn1,inactive
22,CN(C)C(CNc1ccc(C(F)(F)F)cc1[N+](=O)[O-])c1ccccc1 (stereo not drawn),active: 44.7 µM
23,COc1ccc(C2CC(=O)c3cc(-c4nc(-c5cccc([N+](=O)[O-])c5)cs4)c(=O)n(-c4ccccc4C)c3C2)cc1 (stereo not drawn),inactive
24,Cc1c(NC(=O)CNCc2ccc3c(c2)OCO3)c(=O)n(-c2ccccc2)n1C,"inconclusive: 35.5 µM [inhibitor, partial curve, poor fit]"
25,CC(=NNc1ccc([N+](=O)[O-])cn1)c1ccc(N)cc1,"inconclusive: 50.1 µM [inhibitor, partial curve]"

row,SMILES,Potency
1,CN(C)c1ccc(NC(=O)c2ccc(N3CCOCC3)nc2)cc1,inactive
2,Cc1ccc(Nc2c(-c3cccc(Cl)c3)nc3cccc(C)n23)cc1,inactive
3,O=C1CCC(C(=O)OCC(=O)Nc2ccc(Cl)cc2C(F)(F)F)=NN1,inactive
4,COc1ccc(C(=O)Nc2ccc(N3CCCC3)cc2)cc1,"inconclusive: 70.8 µM [inhibitor, partial curve]"
5,COc1ccc(S(=O)(=O)N(C(=O)c2ccncc2)c2ccc3oc(C)c(C(C)=O)c3c2)cc1,inactive
6,COc1ccc(-c2cn3c(n2)sc2cc(C(=O)NC4CCCCC4)ccc23)cc1,inactive
7,Cc1ccc(C)c(NC(=O)C(NS(=O)(=O)c2ccc3c(c2)CCC(=O)N3)c2ccccc2)c1 (stereo not drawn),inactive
8,Cc1ccc(C(=O)c2cc(C)sc2NC(=O)CN2CCN(C(=O)c3ccco3)CC2)cc1,"inconclusive: 31.6 µM [inhibitor, partial curve]"
9,CCOC(=O)C1CCCN(C(=O)Cn2nc(C)n3c(cc4c(OC)cccc43)c2=O)C1 (stereo not drawn),inactive
10,CCOC(=O)c1nnc2c(-c3ccc(F)cc3)c(C)nn2c1N,inactive
11,N=C(N)n1c(N)nc2ccccc2c1=O,inactive
12,c1ccc(Cc2nnc3sc(-c4ccc5c(c4)OCO5)nn23)cc1,"inconclusive: 17.8 µM [inhibitor, partial curve, poor fit]"
13,COCC(C)n1c(C)cc(C(=O)COC(=O)c2ccc(N3CCCC3=O)cc2)c1C (stereo not drawn),"inconclusive: 28.2 µM [inhibitor, single point]"
14,Cc1ccc(-c2nc(S(=O)(=O)c3ccc(C)cc3)c(N3CCOCC3)o2)cc1,"inconclusive: 79.4 µM [inhibitor, single point]"
15,O=C(NC1CCCCC1)C(c1cccnc1)N(CCc1ccccc1)C(=O)Cc1cccs1 (stereo not drawn),"inconclusive: 35.5 µM [inhibitor, single point]"
16,CC1CC(=O)N(CC(=O)NCc2ccccc2)c2ccccc2S1(=O)=O (stereo not drawn),inactive
17,O=S(=O)(NC(=S)Nc1ccccc1)c1ccc(F)cc1,"inconclusive: 8.91 µM [inhibitor, full curve]"
18,CC(/C=C/c1cccs1)=C\C(=O)O,"inconclusive: 39.8 µM [inhibitor, single point]"
19,CC(=O)Nc1nonc1-c1nnc(SCc2cccc(Br)c2)n1C,inactive
20,O=C1/C(=C/c2cccnc2)Oc2cc(OS(=O)(=O)c3ccccc3)ccc21,"inconclusive: 89.1 µM [inhibitor, partial curve, poor fit]"
21,O=C(O)Cc1c[nH]c2cccc(O)c12,active: 35.5 µM
22,CCOC(=O)Sc1nc2ncncc2[nH]1,"inconclusive: 89.1 µM [inhibitor, single point]"
23,COC(=O)c1c(-c2cccs2)csc1NC(=O)COc1ccc(C(C)C)cc1,"inconclusive: 3.55 µM [inhibitor, partial curve, poor fit]"
